These results are taken from the supplement of paper PMC10369915.

This is one part of the list. Rule as the data show it: active = 3.2 or more and inactive = the rest. The signal is at background level for most entries.
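Also: displayed peptides selected on beads carrying the immobilized SH2 domain, with library peptides lacking any tyrosine serving as negative controls.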

The target of the first test is SHP2 C-SH2 domain E139D. Kind of test: enrichment score (SH2-bound / input frequency) (ratio); bacterial display of known human phosphotyrosine sites (pTyr-Var adds point mutants) read by sequencing; higher = stronger binding; tyrosines were phosphorylated by kinases first. The conditions noted are these: peptide library: Human pTyr.
Consider SGAFGTVYKGLWIPE [EGFR_HUMAN_727], for which the enrichment score was inactive: 0.856.
In the case of SSGGEDGYVRIHAFD [EIF3I_HUMAN_308_YA], the enrichment score is inactive: 0.612.
Same read-out and setting: the result for GGTDEGIYDVPLLGP [EFS_HUMAN_253] reads inactive: 0.586; that for VAGHSLGYGFVNYVT [ELAVL1_HUMAN_63], inactive: 1.29.
SDVVDWLYHHVEGFP [DVL2_HUMAN_463]: the enrichment score was inactive: 1.1.
Still for that read-out and setting: next, KARCELLYEGPPDDE [EF2_HUMAN_373_YA]: inactive: 1.04; NEVTPRIYVGNASVA [DUSP3_HUMAN_38]: inactive: 0.597; NKVDDCNYAIKRIRL [E2AK3_HUMAN_619]: inactive: 1.23.
Still for that read-out and setting: the result for TFLPVPEYINQSVPK [EGFR_HUMAN_1092] reads inactive: 1.02; that for EAQKLATYIQSRFAR [DYRK3_HUMAN_369_YA], inactive: 1.65; that for KKLWGDRYFDPANGK [EF2_HUMAN_265], inactive: 1.55.
AKHHQDAYIRIVLEN [ELMO1_HUMAN_395]: the enrichment score was inactive: 2.24.
For the molecule VGETKVIYHLDEEET [DVL2_HUMAN_18], the enrichment score was inactive: 1.1.
On the same count and under the same terms, next, AIEWPGAYPKLMEID [ELMO1_HUMAN_18]: inactive: 0.734.
As to SNSNQCVYAAHNSVI [EAA2_HUMAN_539], the enrichment score is inactive: 1.15.
As to VAKDKPVYDELFYTL [EHD4_HUMAN_451], the enrichment score is inactive: 0.989.
Still for that read-out and setting: the result for KKVSSTHYALLPERP [ACK1_HUMAN_859_YA] reads inactive: 0.993; that for SSGGEDGYVRIHYFD [EIF3I_HUMAN_308], inactive: 0.973.

Another test concerns the target SHP2 C-SH2 domain wild-type. The test is described as above. The conditions noted are these: peptide library: Human pTyr.
Take SGAFGTVYKGLWIPE [EGFR_HUMAN_727]: the enrichment score was inactive: 1.51.
Same read-out and setting: next, SSGGEDGYVRIHAFD [EIF3I_HUMAN_308_YA]: inactive: 0.993; GGTDEGIYDVPLLGP [EFS_HUMAN_253]: inactive: 0.49.
Same read-out and setting: next, VAGHSLGYGFVNYVT [ELAVL1_HUMAN_63]: inactive: 1.21; SDVVDWLYHHVEGFP [DVL2_HUMAN_463]: inactive: 0.938.
On the same count and under the same terms, next, KARCELLYEGPPDDE [EF2_HUMAN_373_YA]: inactive: 1.05.
Regarding NEVTPRIYVGNASVA [DUSP3_HUMAN_38], the enrichment score was inactive: 0.637.
NKVDDCNYAIKRIRL [E2AK3_HUMAN_619]: the enrichment score is inactive: 1.25.
Take TFLPVPEYINQSVPK [EGFR_HUMAN_1092]: the enrichment score was inactive: 0.895.
Same read-out and setting: next, EAQKLATYIQSRFAR [DYRK3_HUMAN_369_YA]: inactive: 1.98; KKLWGDRYFDPANGK [EF2_HUMAN_265]: inactive: 1.46.
Same read-out and setting: next, AKHHQDAYIRIVLEN [ELMO1_HUMAN_395]: inactive: 1.85; VGETKVIYHLDEEET [DVL2_HUMAN_18]: inactive: 0.907; AIEWPGAYPKLMEID [ELMO1_HUMAN_18]: inactive: 0.66.
With SNSNQCVYAAHNSVI [EAA2_HUMAN_539], the enrichment score is inactive: 0.906.
Take VAKDKPVYDELFYTL [EHD4_HUMAN_451]: the enrichment score was inactive: 0.927.
With KKVSSTHYALLPERP [ACK1_HUMAN_859_YA], the enrichment score was inactive: 1.74.
Still for that read-out and setting: the result for SSGGEDGYVRIHYFD [EIF3I_HUMAN_308] reads inactive: 2.26.

The next test concerns the target SHP2 N-SH2 domain L43F. The description is as above. The conditions noted are these: peptide library: Human pTyr.
In the case of SGAFGTVYKGLWIPE [EGFR_HUMAN_727], the enrichment score is inactive: 0.859.
Still for that read-out and setting: the result for SSGGEDGYVRIHAFD [EIF3I_HUMAN_308_YA] reads inactive: 0.744; that for GGTDEGIYDVPLLGP [EFS_HUMAN_253], inactive: 0.69; that for VAGHSLGYGFVNYVT [ELAVL1_HUMAN_63], inactive: 1.28.
The same measure, in the same setting: next, SDVVDWLYHHVEGFP [DVL2_HUMAN_463]: inactive: 0.876.
Turning to KARCELLYEGPPDDE [EF2_HUMAN_373_YA], the enrichment score is inactive: 1.24.
With NEVTPRIYVGNASVA [DUSP3_HUMAN_38], the enrichment score was inactive: 0.741.
Same read-out and setting: the result for NKVDDCNYAIKRIRL [E2AK3_HUMAN_619] reads inactive: 1.17; that for TFLPVPEYINQSVPK [EGFR_HUMAN_1092], inactive: 0.866.
Same read-out and setting: the result for EAQKLATYIQSRFAR [DYRK3_HUMAN_369_YA] reads inactive: 1.57; that for KKLWGDRYFDPANGK [EF2_HUMAN_265], inactive: 1.48.
In the case of AKHHQDAYIRIVLEN [ELMO1_HUMAN_395], the enrichment score was inactive: 1.66.
Still for that read-out and setting: the result for VGETKVIYHLDEEET [DVL2_HUMAN_18] reads inactive: 1.02; that for AIEWPGAYPKLMEID [ELMO1_HUMAN_18], inactive: 0.766; that for SNSNQCVYAAHNSVI [EAA2_HUMAN_539], inactive: 1.05.
For the molecule VAKDKPVYDELFYTL [EHD4_HUMAN_451], the enrichment score was inactive: 0.933.
Same read-out and setting: next, KKVSSTHYALLPERP [ACK1_HUMAN_859_YA]: inactive: 0.936; SSGGEDGYVRIHYFD [EIF3I_HUMAN_308]: active: 3.48.

The next test deals with SHP2 N-SH2 domain T42A. The description is as above. As to conditions: peptide library: Human pTyr.
For SGAFGTVYKGLWIPE [EGFR_HUMAN_727], the enrichment score is inactive: 0.772.
Same read-out and setting: the result for SSGGEDGYVRIHAFD [EIF3I_HUMAN_308_YA] reads inactive: 0.534; that for GGTDEGIYDVPLLGP [EFS_HUMAN_253], inactive: 0.559; that for VAGHSLGYGFVNYVT [ELAVL1_HUMAN_63], inactive: 1.42.
Still for that read-out and setting: the result for SDVVDWLYHHVEGFP [DVL2_HUMAN_463] reads inactive: 0.943; that for KARCELLYEGPPDDE [EF2_HUMAN_373_YA], inactive: 1.18; that for NEVTPRIYVGNASVA [DUSP3_HUMAN_38], inactive: 0.664.
Same read-out and setting: next, NKVDDCNYAIKRIRL [E2AK3_HUMAN_619]: inactive: 1.24; TFLPVPEYINQSVPK [EGFR_HUMAN_1092]: inactive: 0.845.
Regarding EAQKLATYIQSRFAR [DYRK3_HUMAN_369_YA], the enrichment score is inactive: 1.42.
Turning to KKLWGDRYFDPANGK [EF2_HUMAN_265], the enrichment score was inactive: 1.49.
On to AKHHQDAYIRIVLEN [ELMO1_HUMAN_395], for which the enrichment score is inactive: 2.04.
On the same count and under the same terms, the result for VGETKVIYHLDEEET [DVL2_HUMAN_18] reads inactive: 1.05; that for AIEWPGAYPKLMEID [ELMO1_HUMAN_18], inactive: 0.674.
On the same count and under the same terms, the result for SNSNQCVYAAHNSVI [EAA2_HUMAN_539] reads inactive: 1.11; that for VAKDKPVYDELFYTL [EHD4_HUMAN_451], inactive: 1.03; that for KKVSSTHYALLPERP [ACK1_HUMAN_859_YA], inactive: 1.12.
Still for that read-out and setting: the result for SSGGEDGYVRIHYFD [EIF3I_HUMAN_308] reads inactive: 1.09.

A further test addresses SHP2 N-SH2 domain T52S. The description is as above. As to conditions: peptide library: Human pTyr.
For SGAFGTVYKGLWIPE [EGFR_HUMAN_727], the enrichment score is inactive: 0.738.
The same measure, in the same setting: the result for SSGGEDGYVRIHAFD [EIF3I_HUMAN_308_YA] reads inactive: 0.628; that for GGTDEGIYDVPLLGP [EFS_HUMAN_253], inactive: 0.49; that for VAGHSLGYGFVNYVT [ELAVL1_HUMAN_63], inactive: 1.35.
Same read-out and setting: the result for SDVVDWLYHHVEGFP [DVL2_HUMAN_463] reads inactive: 1.11; that for KARCELLYEGPPDDE [EF2_HUMAN_373_YA], inactive: 1.32.
Same read-out and setting: next, NEVTPRIYVGNASVA [DUSP3_HUMAN_38]: inactive: 0.72; NKVDDCNYAIKRIRL [E2AK3_HUMAN_619]: inactive: 1.29; TFLPVPEYINQSVPK [EGFR_HUMAN_1092]: inactive: 1.17.
As to EAQKLATYIQSRFAR [DYRK3_HUMAN_369_YA], the enrichment score is inactive: 1.6.
On the same count and under the same terms, the result for KKLWGDRYFDPANGK [EF2_HUMAN_265] reads inactive: 1.83.
For AKHHQDAYIRIVLEN [ELMO1_HUMAN_395], the enrichment score is inactive: 2.23.
Turning to VGETKVIYHLDEEET [DVL2_HUMAN_18], the enrichment score is inactive: 1.08.
Still for that read-out and setting: the result for AIEWPGAYPKLMEID [ELMO1_HUMAN_18] reads inactive: 0.952.
Consider SNSNQCVYAAHNSVI [EAA2_HUMAN_539], for which the enrichment score is inactive: 1.16.
On the same count and under the same terms, next, VAKDKPVYDELFYTL [EHD4_HUMAN_451]: inactive: 1.03; KKVSSTHYALLPERP [ACK1_HUMAN_859_YA]: inactive: 1.16.
SSGGEDGYVRIHYFD [EIF3I_HUMAN_308]: the enrichment score is inactive: 2.32.

A further test concerns the target SHP2 N-SH2 domain wild-type. The test is described as above. As to conditions: peptide library: Human pTyr.
Turning to SGAFGTVYKGLWIPE [EGFR_HUMAN_727], the enrichment score is inactive: 0.669.
With SSGGEDGYVRIHAFD [EIF3I_HUMAN_308_YA], the enrichment score is inactive: 0.494.
Still for that read-out and setting: the result for GGTDEGIYDVPLLGP [EFS_HUMAN_253] reads inactive: 0.58; that for VAGHSLGYGFVNYVT [ELAVL1_HUMAN_63], inactive: 1.53.
Same read-out and setting: the result for SDVVDWLYHHVEGFP [DVL2_HUMAN_463] reads inactive: 0.967; that for KARCELLYEGPPDDE [EF2_HUMAN_373_YA], inactive: 1.34.
Still for that read-out and setting: next, NEVTPRIYVGNASVA [DUSP3_HUMAN_38]: inactive: 0.754.
In the case of NKVDDCNYAIKRIRL [E2AK3_HUMAN_619], the enrichment score is inactive: 1.5.
The same measure, in the same setting: the result for TFLPVPEYINQSVPK [EGFR_HUMAN_1092] reads inactive: 0.679.
On the same count and under the same terms, next, EAQKLATYIQSRFAR [DYRK3_HUMAN_369_YA]: inactive: 2.2; KKLWGDRYFDPANGK [EF2_HUMAN_265]: inactive: 1.75.
As for AKHHQDAYIRIVLEN [ELMO1_HUMAN_395], the enrichment score is inactive: 2.48.
Regarding VGETKVIYHLDEEET [DVL2_HUMAN_18], the enrichment score was inactive: 0.974.
The same measure, in the same setting: next, AIEWPGAYPKLMEID [ELMO1_HUMAN_18]: inactive: 0.701; SNSNQCVYAAHNSVI [EAA2_HUMAN_539]: inactive: 1.06; VAKDKPVYDELFYTL [EHD4_HUMAN_451]: inactive: 1.1.
On the same count and under the same terms, next, KKVSSTHYALLPERP [ACK1_HUMAN_859_YA]: inactive: 1.16; SSGGEDGYVRIHYFD [EIF3I_HUMAN_308]: inactive: 0.68.
